42 sequences from publication PMC7819943, “Rice protein-binding microarrays: a tool to detect cis-acting elements near promoter regions in rice” can be followed below.

The other results are listed elsewhere or left out.

The assay concerns the target T1, OsWOX13 (Oryza sativa, UniProt Q5QMM3 1-267).
T1 sequence: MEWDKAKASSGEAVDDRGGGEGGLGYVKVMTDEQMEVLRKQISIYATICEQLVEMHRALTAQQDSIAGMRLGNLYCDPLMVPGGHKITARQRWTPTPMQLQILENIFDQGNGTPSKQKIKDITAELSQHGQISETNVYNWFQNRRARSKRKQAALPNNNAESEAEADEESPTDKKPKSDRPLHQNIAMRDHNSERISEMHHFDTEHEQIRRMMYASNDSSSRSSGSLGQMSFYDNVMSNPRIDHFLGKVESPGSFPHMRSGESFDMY
The assay is described as follows: protein-binding microarray (RPBM); PBS, 2% BSA, 51.3 ng/ul salmon testes DNA, 50 uM zinc acetate, 200 nM TF, 25 C, 1 h; high values mean tight binding. The following applies: protein: recombinant; tags: N-terminal polyhistidine and DsRed monomer fusion (pET32a); label: CyDye5-dUTP incorporated in the synthesized complementary strand; 3' TTTTT single-stranded linker to array surface; dsDNA, one strand shown. The method, boiled down:
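Binding signal here means per-feature fluorescence intensity in arbitrary units. The values were read on an Axon 4000B scanner after a custom Agilent array, double-stranded by primer extension with Cy5-dUTP, was incubated with 200 nM protein at 25 °C for 1 h in PBS with 2% BSA, salmon testes DNA and 50 µM zinc acetate, then washed. The proteins were transcription factors with an N-terminal polyhistidine tag and DsRed, expressed in E. coli BL21-CodonPlus and purified on Ni–NTA.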
With “ACTATGCTTACAATCACGTCCATCATCAAGTATTTAGATGCGGAGTCACCTAGTGCAG”, the binding signal was 6540 fluorescence intensity (a.u.). The figure for “ATAATTTATTAGATTGTAAATTTAAGAGATTTAAATACAACGGAGTCACCTAGTGCAG” is 22100 fluorescence intensity (a.u.); for “CATGATTAGCCATAAGAGTTACAGTAACCCACATGTGCTACGGAGTCACCTAGTGCAG” it is 40700 fluorescence intensity (a.u.); for “CAGAAGCTGATTTTGTTTGTGTGTAAATGAATTTGATCACCGGAGTCACCTAGTGCAG” it is 4720 fluorescence intensity (a.u.). As for “GTTGCGTGCAACAATTGGGCTAATTGATTGCACACGAGAACGGAGTCACCTAGTGCAG”, the figure is 16900 fluorescence intensity (a.u.). “TTTTAAACTATGTTAACACAAGTTTGGTTACATGTCAGGCCGGAGTCACCTAGTGCAG”: the binding signal is 4030 ± 134 fluorescence intensity (a.u.).

In the case of “TTCTGATAGAGAATCGAAATGGGCTACTCGTAGAATGAATCGGAGTCACCTAGTGCAG”, the binding signal was 4460 fluorescence intensity (a.u.).

With “TGGATGATAATTTAACATGTTTATATTTGAAAAGCTCTTACGGAGTCACCTAGTGCAG”, the binding signal is 13500 fluorescence intensity (a.u.).

“GGTGATTGATAGCGTGGCTGTTCTTGCTATATCAATTTATCGGAGTCACCTAGTGCAG”: the binding signal was 47200 fluorescence intensity (a.u.).

Take “TTACTAATTTTAATCTTTGCCTAATTTGCTACCCTGACTACGGAGTCACCTAGTGCAG”: the binding signal was 25500 fluorescence intensity (a.u.).

With “CCACCACCTACCAAAATTGATGGACACCAAAATAAATCCGCGGAGTCACCTAGTGCAG”, the binding signal is 5620 fluorescence intensity (a.u.). For “AACATGATGATGATATGAATACTATATAGCGTACTCTTTTCGGAGTCACCTAGTGCAG”, the binding signal was 5510 fluorescence intensity (a.u.).

“ACTGATAACTTCCAACTGATAATTGGAGAAGGAGGGTTTGCGGAGTCACCTAGTGCAG”: the binding signal was 12400 fluorescence intensity (a.u.). As for “GAGCTAATATCAATCTATCATGTGTCTATGCTCCTACCCTCGGAGTCACCTAGTGCAG”, the figure is 23500 fluorescence intensity (a.u.); as for “CATTAATTGTATTAGCACCTTTCTCTCATGCATGCCGCCCCGGAGTCACCTAGTGCAG”, 38600 fluorescence intensity (a.u.); as for “GACGAAAATTAGACAGTCCGACAAATAGAGGGACCTAAAGCGGAGTCACCTAGTGCAG”, 3410 fluorescence intensity (a.u.). The figure for “GGAACTGATTGTATGCCTTCTGACTGTATAAACTATTCATCGGAGTCACCTAGTGCAG” is 20800 fluorescence intensity (a.u.). As for “AATCTAATCCATCAAATTAAAGGGATGGCTTAGATTAAGTCGGAGTCACCTAGTGCAG”, the figure is 4690 fluorescence intensity (a.u.); as for “TGACTAAATTCAAATCAATTTGGGAAATAATTCCATGTTCCGGAGTCACCTAGTGCAG”, 16300 fluorescence intensity (a.u.); as for “TTTCTTTGACAGGGTGATGTTGGTTGTGGTAAAACCGTAGCGGAGTCACCTAGTGCAG”, 6810 fluorescence intensity (a.u.). With “GATTAATTTTGTTTCTGTTATTAACTCGACAGTTTGTGTGCGGAGTCACCTAGTGCAG”, the binding signal was 36300 fluorescence intensity (a.u.). As for “AGCTGTCATTAATTAATTACTAGTAGCTGTTGTTCATGTACGGAGTCACCTAGTGCAG”, the figure is 37800 fluorescence intensity (a.u.); as for “GAATCTATTAAGCCTAATTAATCCGTTATTATAGCAAATACGGAGTCACCTAGTGCAG”, 6470 fluorescence intensity (a.u.); as for “CTATTTCTTTGATAAATTAATAGATGTTTACTAGTACTCCCGGAGTCACCTAGTGCAG”, 5260 fluorescence intensity (a.u.).

“TTAGCAAATTAAGATCATCTCATCTCTATCCATGTATTCACGGAGTCACCTAGTGCAG”: the binding signal was 4260 fluorescence intensity (a.u.). The figure for “AATTAATTAGGTGAAGAAATTAAAAGATAAGTTGCTTTAACGGAGTCACCTAGTGCAG” is 17200 fluorescence intensity (a.u.); for “CAATTTAATTAGACCGCAAATCCTAGATCGAGGTGACGCCCGGAGTCACCTAGTGCAG” it is 12900 fluorescence intensity (a.u.). On to “ATTTATTTTATTATTAATTTATATTTAATATATATTTAATCGGAGTCACCTAGTGCAG”, for which the binding signal was 4280 fluorescence intensity (a.u.). The figure for “TATAACTAAAATTATATTTGTAAGTTTAGTTGATATGACACGGAGTCACCTAGTGCAG” is 6390 fluorescence intensity (a.u.); for “GAGGAAATTGGAGGATGGTAACACTGAAGAGAATGGAGATCGGAGTCACCTAGTGCAG” it is 4930 fluorescence intensity (a.u.); for “AAACTAATTTAAATCTGTGCTAACATCCAGCATTTTACTTCGGAGTCACCTAGTGCAG” it is 13800 fluorescence intensity (a.u.).

For the sequence “GTTGTGTAACTGATTGACCGGGTTGTGTGGCTAAACGTGGCGGAGTCACCTAGTGCAG”, the binding signal was 39800 fluorescence intensity (a.u.).

For the sequence “TATAATTTGAAATTCAAATTTAAATTATTGAAACAGAGTCCGGAGTCACCTAGTGCAG”, the binding signal was 44600 fluorescence intensity (a.u.). On to “GAGTCAATTAAGGTCGCTGGTAACAGCCAGTGCTCGGCTCCGGAGTCACCTAGTGCAG”, for which the binding signal is 19700 fluorescence intensity (a.u.).

With “CAGATCTATGATTGGGCCGTGATGGACGGGCCCGATTCAACGGAGTCACCTAGTGCAG”, the binding signal was 27000 fluorescence intensity (a.u.). The figure for “CAACCTTACTAATCAATCGGATGCATATATATGGGCTTGGCGGAGTCACCTAGTGCAG” is 5030 fluorescence intensity (a.u.); for “TGAAACCAATGATTGCAAGCAACATTACGCGTCGCCGAGTCGGAGTCACCTAGTGCAG” it is 18000 fluorescence intensity (a.u.).

Regarding “TTGTCAATTACTGCTCCGGTGACTGTTAATTTGGATTTTCCGGAGTCACCTAGTGCAG”, the binding signal is 32900 fluorescence intensity (a.u.). Regarding “ATCATCATCGGCTTGTCAATCATATCATCATCGTTCATTTCGGAGTCACCTAGTGCAG”, the binding signal was 8720 fluorescence intensity (a.u.). Regarding “ATAAGCTGATGATTAGGCTATCCTGAACTGTTGCTCTCGGCGGAGTCACCTAGTGCAG”, the binding signal is 8130 fluorescence intensity (a.u.). Turning to “ACGTAATAATTAAATATTCCAAATACAACGGAAACGTAATCGGAGTCACCTAGTGCAG”, the binding signal was 7270 fluorescence intensity (a.u.). Take “GGGTAATCACAGTCGATTTTCTGTTCAAATTGATATCCCTCGGAGTCACCTAGTGCAG”: the binding signal was 14400 fluorescence intensity (a.u.).
